Laboratory results from PubChem BioAssay AID1745853 (National Center for Advancing Translational Sciences (NCATS), 2022).
This is one part of the list. The main result of the screen is listed elsewhere. These columns were measured beside it and carry no call. Numbered stars: 1 amine (or outer) side, 2 acyl side, 3 side chain; on linkers, the order of the positions; unused ones are H or OH. Bridge positions count the residues as written; N and C are the ends. Square brackets hold non-standard residues; d marks the D form. Peptide text beside a SMILES is read from it. * marks the point of attachment. pTerphenylCO(4''-OnC5H11) = CCCCCOc1ccc(-c2ccc(-c3ccc(C(=O)*)cc3)cc2)cc1; Orn(4R-OH,5R-OH) = O=C([C@H](C[C@@H](O)[C@@H](O)N[*:3])N[*:1])[*:2]; hTyr(3S-OH,4S-OH) = N[C@H](C(=O)O)[C@H](O)[C@@H](O)c1ccc(O)cc1; Pro(3S-OH,4S-Me) = C[C@H]1CN[C@H](C(=O)O)[C@H]1O; Hyp = O=C(O)[C@@H]1C[C@@H](O)CN1

Columns and labels:
Test in all cases: Primary Screen for Target Class Profiling of Small Molecule Inhibitors of Methyltransferases
[1] = target: Glycine N-methyltransferase (Homo sapiens) (UniProt Q14749); conditions: purified enzyme, MTase-Glo SAH luminescence; measured here: GNMT inhibition; at 40 µM; stronger effect = lower value
Summary of the method: (§1)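 Each enzyme was reacted with SAM and its substrate, with compounds tested once at 40 uM; SAH formed was read by MTase-Glo luminescence.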

[2] = target: Guanidinoacetate N-methyltransferase (Homo sapiens) (UniProt Q14353); conditions: purified enzyme, MTase-Glo SAH luminescence; measured here: GAMT inhibition; at 40 µM; stronger effect = lower value
Summary of the method: as §1

[3] = target: Histamine N-methyltransferase (Homo sapiens) (UniProt P50135); conditions: purified enzyme, MTase-Glo SAH luminescence; measured here: HNMT inhibition; at 40 µM; stronger effect = lower value
Summary of the method: as §1

[4] = target: Nicotinamide N-methyltransferase (Homo sapiens) (UniProt P40261); conditions: purified enzyme, MTase-Glo SAH luminescence; measured here: NNMT inhibition; at 40 µM; stronger effect = lower value
Summary of the method: as §1

[5] = target: Phenylethanolamine N-methyltransferase (Homo sapiens) (UniProt P11086); conditions: purified enzyme, MTase-Glo SAH luminescence; measured here: PNMT inhibition; at 40 µM; stronger effect = lower value
Summary of the method: as §1
% is set by controls: 0 for no effect and ±100 for the full control effect.

CCCSCCCN1C(=O)c2cc3ccc(OC)cc3n2CC1(C)C(=O)NC1CCCCC1 (configuration not stated)
activity change, negative = inhibition [1]: 1.15% | activity change, negative = inhibition [2]: 4.8% | activity change, negative = inhibition [3]: 1.36% | activity change, negative = inhibition [4]: 2.58% | activity change, negative = inhibition [5]: -3.79%

Cc1cccc(N2CCN(C(=O)C3c4ccccc4CC(=O)N3C)CC2)c1C (configuration not stated)
activity change, negative = inhibition [1]: -8.97% | activity change, negative = inhibition [2]: -12% | activity change, negative = inhibition [3]: -6.45% | activity change, negative = inhibition [4]: -20.2% | activity change, negative = inhibition [5]: -11.1%

CC(C)CCN1C(=O)c2cc3sccc3n2CC1(C)C(=O)NC1CCCCCC1 (configuration not stated)
activity change, negative = inhibition [1]: -4.37% | activity change, negative = inhibition [2]: 3.65% | activity change, negative = inhibition [3]: 2.23% | activity change, negative = inhibition [4]: 1.62% | activity change, negative = inhibition [5]: -3.22%

O=C(c1ccc(C(F)(F)F)cc1)N1CCCC2(C1)C(=NC1CCCC1)NC(=O)N2c1cccnc1 (configuration not stated)
activity change, negative = inhibition [1]: -3.97% | activity change, negative = inhibition [2]: -7.25% | activity change, negative = inhibition [3]: -1.95% | activity change, negative = inhibition [4]: -8.14% | activity change, negative = inhibition [5]: -3.82%

CCCS(=O)(=O)N1CC[C@H]2NC(=O)N(c3ccc(F)cc3)C(=O)[C@H]21
activity change, negative = inhibition [1]: -3.43% | activity change, negative = inhibition [2]: -5.91% | activity change, negative = inhibition [3]: -1.72% | activity change, negative = inhibition [4]: -7.46% | activity change, negative = inhibition [5]: -3.27%

CC(C)(O)C1CC=C(C(=O)OC[C@H]2O[C@@H](OC(=O)C3=CCC(C(C)(C)O)CC3)[C@H](O)[C@@H](O)[C@@H]2O)CC1 (some centres not stated)
activity change, negative = inhibition [1]: 1.33% | activity change, negative = inhibition [2]: 5.22% | activity change, negative = inhibition [3]: -3.59% | activity change, negative = inhibition [4]: -8.45% | activity change, negative = inhibition [5]: 4.82%

CCOc1cccc(C2c3cccn3-c3sc4c(c3CN2C(=O)Nc2cc(OC)ccc2OC)CCCC4)c1 (configuration not stated)
activity change, negative = inhibition [1]: -0.883% | activity change, negative = inhibition [2]: 2.91% | activity change, negative = inhibition [3]: -3.35% | activity change, negative = inhibition [4]: 1.2% | activity change, negative = inhibition [5]: 0.174%

CCOC(=O)C1=C(CN2CCn3cccc3C2C)NC(=O)NC1c1ccc(C)cc1 (configuration not stated)
activity change, negative = inhibition [1]: 1.55% | activity change, negative = inhibition [2]: 0% | activity change, negative = inhibition [3]: 3.12% | activity change, negative = inhibition [4]: -2.64% | activity change, negative = inhibition [5]: 1.52%

CC1(C(=O)NCc2ccccc2)Cn2nc(-c3ccccc3)cc2C(=O)N1c1ccc(Cl)cc1 (configuration not stated)
activity change, negative = inhibition [1]: 3.97% | activity change, negative = inhibition [2]: 4.54% | activity change, negative = inhibition [3]: 3.88% | activity change, negative = inhibition [4]: 2.68% | activity change, negative = inhibition [5]: 2.72%

C[N+](C)(C)CCOP(=O)(O)OP(=O)([O-])OC[C@H]1O[C@@H](n2ccc(N)nc2=O)[C@H](O)[C@@H]1O
activity change, negative = inhibition [1]: 0.18% | activity change, negative = inhibition [2]: 11.7% | activity change, negative = inhibition [3]: 4.92% | activity change, negative = inhibition [4]: -4.64% | activity change, negative = inhibition [5]: 6.94%

CCn1c(=O)n(CC)c2cc(S(=O)(=O)Nc3ccc(C)c(Cl)c3)ccc21
activity change, negative = inhibition [1]: -4.78% | activity change, negative = inhibition [2]: 1.82% | activity change, negative = inhibition [3]: -5.04% | activity change, negative = inhibition [4]: -25.3% | activity change, negative = inhibition [5]: -3.48%

CCCC[C@@]1(C2CCCC2)Cc2cc(OCC(=O)O)c(Cl)c(Cl)c2C1=O
activity change, negative = inhibition [1]: -16.2% | activity change, negative = inhibition [2]: 8.7% | activity change, negative = inhibition [3]: -0.679% | activity change, negative = inhibition [4]: -68.1% | activity change, negative = inhibition [5]: 10.3%

O=c1c2ccccc2n2c(SCc3cccc(F)c3)nnc2n1Cc1ccc(F)cc1
activity change, negative = inhibition [1]: -0.293% | activity change, negative = inhibition [2]: -2.22% | activity change, negative = inhibition [3]: -2.8% | activity change, negative = inhibition [4]: -6.45% | activity change, negative = inhibition [5]: -6.57%

CCOc1ccc(NC(=S)N2CCC(C(O)(c3ccccc3)c3ccccc3)CC2)cc1
activity change, negative = inhibition [1]: -2.41% | activity change, negative = inhibition [2]: -14.8% | activity change, negative = inhibition [3]: 6.33% | activity change, negative = inhibition [4]: -28.3% | activity change, negative = inhibition [5]: -5.31%

COc1ccc([C@H]2C[C@@H](O)[C@@H](O)[C@@H]2N2CCCCC2)cc1
activity change, negative = inhibition [1]: -2.88% | activity change, negative = inhibition [2]: -2.99% | activity change, negative = inhibition [3]: -2.65% | activity change, negative = inhibition [4]: -5.38% | activity change, negative = inhibition [5]: 10.5%

O=c1c2cc(-c3cccs3)nn2ccn1CC(O)c1cccc(Cl)c1 (configuration not stated)
activity change, negative = inhibition [1]: -5.99% | activity change, negative = inhibition [2]: -1.19% | activity change, negative = inhibition [3]: -1.55% | activity change, negative = inhibition [4]: -5.15% | activity change, negative = inhibition [5]: 3.28%

COc1cc2c(cc1OC)C1CC(=O)C(CC(C)C)CN1CC2 (configuration not stated)
activity change, negative = inhibition [1]: -3.31% | activity change, negative = inhibition [2]: 8.33% | activity change, negative = inhibition [3]: 5.06% | activity change, negative = inhibition [4]: -6.42% | activity change, negative = inhibition [5]: 4.18%

CN(CCc1noc(C2CN(C(=O)CN3CCCCCC3)C2)n1)S(C)(=O)=O
activity change, negative = inhibition [1]: -1.52% | activity change, negative = inhibition [2]: -1.9% | activity change, negative = inhibition [3]: -4.12% | activity change, negative = inhibition [4]: 6.04% | activity change, negative = inhibition [5]: 6.24%

Cc1cccc(-n2ncc3c2CCCC3NC(=O)CN2CCNC(=O)C2)c1C (configuration not stated)
activity change, negative = inhibition [1]: -0.49% | activity change, negative = inhibition [2]: 0.891% | activity change, negative = inhibition [3]: -1.14% | activity change, negative = inhibition [4]: -18.3% | activity change, negative = inhibition [5]: 10.3%

Cc1nc(C2(C)CCN(C(=O)c3ccc(Cc4c(C)noc4C)o3)CC2)no1
activity change, negative = inhibition [1]: -2.59% | activity change, negative = inhibition [2]: 2.2% | activity change, negative = inhibition [3]: 2.63% | activity change, negative = inhibition [4]: 0.794% | activity change, negative = inhibition [5]: -1.93%

Cc1cccc(CNC(=O)C2(C)Cn3cnc(C(=O)NC4CCCC4)c3C(=O)N2C2CC2)c1 (configuration not stated)
activity change, negative = inhibition [1]: 5.38% | activity change, negative = inhibition [2]: 1.88% | activity change, negative = inhibition [3]: 12.8% | activity change, negative = inhibition [4]: 6.01% | activity change, negative = inhibition [5]: 16.7%

COCCCNC(=O)C1(C)Cn2nc(-c3ccccc3)cc2C(=O)N1Cc1cccc(C)c1 (configuration not stated)
activity change, negative = inhibition [1]: 0.367% | activity change, negative = inhibition [2]: 3.13% | activity change, negative = inhibition [3]: 3.04% | activity change, negative = inhibition [4]: 0.741% | activity change, negative = inhibition [5]: -5.88%

Cc1nc(C2CC(O)C2)cc(N2CCN(C(=O)c3cccs3)CC2)n1 (configuration not stated)
activity change, negative = inhibition [1]: -3.55% | activity change, negative = inhibition [2]: 1.47% | activity change, negative = inhibition [3]: -1.53% | activity change, negative = inhibition [4]: -3.17% | activity change, negative = inhibition [5]: 1.26%

CCCCCOc1ccc(-c2ccc(-c3ccc(C(=O)N[C@H]4C[C@@H](O)[C@@H](O)NC(=O)[C@@H]5[C@@H](O)[C@@H](C)CN5C(=O)[C@H]([C@@H](C)O)NC(=O)[C@H]([C@H](O)[C@@H](O)c5ccc(O)cc5)NC(=O)[C@@H]5C[C@@H](O)CN5C(=O)[C@H]([C@@H](C)O)NC4=O)cc3)cc2)cc1 ({pTerphenylCO(4''-OnC5H11)}-[Orn(4R-OH,5R-OH)]T[Hyp][hTyr(3S-OH,4S-OH)]T[Pro(3S-OH,4S-Me)]; lactam 1-C)
activity change, negative = inhibition [1]: -2.3% | activity change, negative = inhibition [2]: 14.5% | activity change, negative = inhibition [3]: 6.32% | activity change, negative = inhibition [4]: -5.36% | activity change, negative = inhibition [5]: 4.44%

COC[C@@]12CC[C@@H](N3CCOCC3)C[C@H]1CCN(c1nccc(N)n1)C2
activity change, negative = inhibition [1]: -3.65% | activity change, negative = inhibition [2]: -6.67% | activity change, negative = inhibition [3]: -3.15% | activity change, negative = inhibition [4]: -11.8% | activity change, negative = inhibition [5]: -8.68%

CCCn1c(=O)c2ccc(C(=O)NC(C)C)cc2n2c(SCC(=O)Nc3cccc(Cl)c3)nnc12
activity change, negative = inhibition [1]: -2% | activity change, negative = inhibition [2]: 2.92% | activity change, negative = inhibition [3]: 2.68% | activity change, negative = inhibition [4]: 0.243% | activity change, negative = inhibition [5]: 0.308%

CC(C)c1nc(N(C)S(C)(=O)=O)nc(-c2ccc(F)cc2)c1/C=C/[C@@H](O)C[C@@H](O)CC(=O)O
activity change, negative = inhibition [1]: -7.78% | activity change, negative = inhibition [3]: 12%

C/C=C(\C)C(=O)O[C@H]1C=C(CO)C(=O)[C@H](OC(C)=O)[C@H]1C(C)C
activity change, negative = inhibition [1]: -3.45% | activity change, negative = inhibition [2]: -0.418% | activity change, negative = inhibition [3]: 0.332% | activity change, negative = inhibition [4]: -15.9% | activity change, negative = inhibition [5]: -8.26%
